# Measurements from the antibiotic and cytotoxicity screens of Wong et al. (2023).
# The list shows a part of the results.
# Test system: HepG2
# Assay: cytotoxicity call (relative viability < 0.9)
# Settings: 10 µM
row,SMILES,cytotoxicity call
1,COc1ccc(NC(=O)N(C)C[C@@H]2OCCCC[C@@H](C)Oc3ccc(NC(=O)c4ccncc4)cc3C(=O)N([C@@H](C)CO)C[C@H]2C)cc1,inactive
2,C[C@H](CO)N1C[C@H](C)[C@@H](CN(C)S(C)(=O)=O)Oc2ccc(NC(=O)Nc3ccc(F)cc3)cc2C1=O,inactive
3,C[C@@H]1CN([C@@H](C)CO)C(=O)c2cc(NS(=O)(=O)c3cccs3)ccc2O[C@H]1CN(C)S(C)(=O)=O,inactive
4,O=C(O)[C@H]1C2C(=O)N(C3CC3)C[C@]23C=C[C@H]1O3 (stereo not given in full),inactive
5,COc1ccc2c3c([nH]c2c1)[C@@H](CO)N(C[C@]13CN(C1)S(=O)(=O)C)C(=O)c1cnccn1,inactive
6,C[C@H](CO)N1C[C@H](C)[C@@H](CN(C)C(=O)C2CCCCC2)Oc2cc(C#CCN(C)C)ccc2S1(=O)=O,inactive
7,CC(C)NC(=O)Nc1cccc2c1O[C@H](CN(C)S(=O)(=O)c1ccc(F)cc1)[C@H](C)CN([C@@H](C)CO)C2=O,inactive
8,COCCOC(=O)N1C(=O)[C@@]2(c3cc(C#CC4(O)CCCCCC4)ccc31)[C@H](C(=O)NC[C@H](O)c1ccccc1)[C@H]1C(=O)O[C@H](c3ccccc3)[C@H](c3ccccc3)N1[C@@H]2c1ccc(OCCO)cc1,inactive
9,NC(=O)c1cnccn1,inactive
10,Cc1ccc2nc(-c3ccco3)[nH]c2c1,inactive
11,CC(C)NC(=O)N(C)C[C@@H]1OCCCC[C@H](C)Oc2ccc(NS(C)(=O)=O)cc2C(=O)N([C@@H](C)CO)C[C@@H]1C,inactive
12,CCOC(=O)CNC(=O)c1cnn2cccnc12,inactive
13,Cc1ccc(S(=O)(=O)N(C)C[C@H]2OCCCC[C@@H](C)Oc3ccc(NC(=O)C4CCCCC4)cc3C(=O)N([C@H](C)CO)C[C@H]2C)cc1,inactive
14,C[C@H](CO)N1C[C@H](C)[C@@H](CN(C)S(=O)(=O)c2ccccc2)Oc2ccc(NC(=O)C3CC3)cc2C1=O,inactive
15,O=C(O)CCc1nc2ccccc2[nH]c1=O,inactive
16,CCOC(=O)CCC(=O)OC1C(OC2C(C)C(OC3CC(C)(OC)C(O)C(C)O3)C(C)C(=O)OC(CC)C(C)(O)C(O)C(C)C(=O)C(C)CC2(C)O)OC(C)CC1N(C)C (stereo not given),inactive
17,C[C@H](CO)N1C[C@H](C)[C@@H](CN(C)C(=O)Nc2ccc(C(F)(F)F)cc2)Oc2ccc(NC(=O)Nc3ccc(C(F)(F)F)cc3)cc2CC1=O,active
18,COc1ccc(S(=O)(=O)N(C)C[C@@H]2Oc3c(NC(=O)c4cc(C)nn4C)cccc3C(=O)N([C@@H](C)CO)C[C@H]2C)cc1,inactive
19,C[C@H](CO)N1C[C@H](C)[C@@H](CN(C)Cc2ccccc2)OCCCC[C@H](C)Oc2ccc(NS(=O)(=O)c3cccs3)cc2C1=O,inactive
20,Cc1noc(C)c1NC(=O)N(C)C[C@@H]1Oc2c(NS(=O)(=O)c3c(C)noc3C)cccc2C(=O)N([C@@H](C)CO)C[C@@H]1C,inactive
21,Cc1noc(C)c1NC(=O)Nc1ccc2c(c1)C(=O)N([C@@H](C)CO)C[C@H](C)[C@@H](CN(C)Cc1ccc(C(=O)O)cc1)OCCCC[C@H](C)O2,inactive
22,C[C@H](CO)N1C[C@H](C)[C@@H](CN(C)C(=O)Nc2cccc3ccccc23)OCCCC[C@H](C)Oc2ccc(NC(=O)Nc3cccc4ccccc34)cc2C1=O,inactive
23,C[C@H](CO)N1C[C@H](C)[C@@H](CN(C)C)Oc2ccc(NS(=O)(=O)c3cn(C)cn3)cc2CC1=O,inactive
24,C[C@@H]1CCCCO[C@H](CN(C)C(=O)Nc2ccc3c(c2)OCO3)[C@H](C)CN([C@H](C)CO)C(=O)c2cc(NC(=O)Nc3ccc(C(F)(F)F)cc3)ccc2O1,inactive
25,CCC(C)CCCCC(=O)NC(CCN)C(=O)NC(C(=O)NC(CCN)C(=O)NC1CCNC(=O)C(C(C)O)NC(=O)C(CCN)NC(=O)C(CCN)NC(=O)C(CC(C)C)NC(=O)C(Cc2ccccc2)NC(=O)C(CCN)NC1=O)C(C)O.O=S(=O)(O)O (stereo not given),inactive
26,Cc1cccc(S(=O)(=O)N2C[C@H](O)COC[C@@H]3O[C@@H](CC(=O)NCc4ccncn4)CC[C@H]32)c1,inactive
27,O=c1[nH]c2ccccc2c(=O)n1CCCO,inactive
28,COC(=O)Cc1c(C)[nH]c2ncnn2c1=O,inactive
29,Cc1cc(C(=O)Nc2cccc3c2O[C@H](CN(C)Cc2ccc(Oc4ccccc4)cc2)[C@@H](C)CN([C@@H](C)CO)C3=O)n(C)n1,inactive
30,Cc1cc(C)c(C#N)c(=O)[nH]1,inactive
